The list shows a part of the results.
Assays:
Assay in all cases: glycan array binding signal (z-score within array); higher = stronger binding
Details in all cases: glycan notation: IUPAC condensed, linker removed
[1] = target: Fuc(a1-2)Gal(b1-4)GlcNAc(b1-3)Gal(b1-4)GlcNAc(b1-2)Man(a1-3)[Fuc(a1-2)Gal(b1-4)GlcNAc(b1-3)Gal(b1-4)GlcNAc(b1-2)Man(a1-6)]Man(b1-4)GlcNAc(b1-4)GlcNAc
In short: (§1)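 Columns mapping to the same glycan were averaged after glycan names were converted to IUPAC-condensed notation. The data come from 3228 arrays in the Consortium for Functional Glycomics database, limited to those with an available protein sequence. Binding is reported as a within-array Z-score averaged across arrays of one protein sequence and across linkers.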

[2] = target: Fuc(a1-2)Gal(b1-4)GlcNAc(b1-3)Gal(b1-4)GlcNAc(b1-3)Gal(b1-4)GlcNAc
In short: as §1

[3] = target: Fuc(a1-2)Gal(b1-4)GlcNAc(b1-3)GalNAc
In short: as §1

[4] = target: Fuc(a1-2)Gal(b1-4)GlcNAc(b1-3)[Fuc(a1-2)Gal(b1-4)GlcNAc(b1-6)]GalNAc
In short: as §1

[5] = target: Fuc(a1-2)Gal(b1-4)GlcNAc(b1-3)[Fuc(a1-3)[Gal(b1-4)]GlcNAc(b1-6)]Gal(b1-4)Glc
In short: as §1

[6] = target: Fuc(a1-2)Gal(b1-4)GlcNAc(b1-6)GalNAc
In short: as §1

[7] = target: Fuc(a1-2)Gal(b1-4)GlcNAc6S
In short: as §1

[8] = target: Fuc(a1-2)Gal(b1-4)[Fuc(a1-3)]GlcNAc
In short: as §1

[9] = target: Fuc(a1-2)Gal(b1-4)[Fuc(a1-3)]GlcNAc(b1-2)Man(a1-3)[Fuc(a1-2)Gal(b1-4)[Fuc(a1-3)]GlcNAc(b1-2)Man(a1-6)]Man(b1-4)GlcNAc(b1-4)[Fuc(a1-6)]GlcNAc
In short: as §1

[10] = target: Fuc(a1-2)Gal(b1-4)[Fuc(a1-3)]GlcNAc(b1-2)[Fuc(a1-2)Gal(b1-4)[Fuc(a1-3)]GlcNAc(b1-4)]Man(a1-3)[Fuc(a1-2)Gal(b1-4)[Fuc(a1-3)]GlcNAc(b1-2)Man(a1-6)]Man(b1-4)GlcNAc(b1-4)GlcNAc
In short: as §1

[11] = target: Fuc(a1-2)Gal(b1-4)[Fuc(a1-3)]GlcNAc(b1-3)Gal(b1-4)[Fuc(a1-3)]GlcNAc
In short: as §1

[12] = target: Fuc(a1-2)Gal(b1-4)[Fuc(a1-3)]GlcNAc(b1-3)Gal(b1-4)[Fuc(a1-3)]GlcNAc(b1-3)Gal(b1-4)[Fuc(a1-3)]GlcNAc
In short: as §1

[13] = target: Fuc(a1-2)Gal(b1-4)[Fuc(a1-3)]GlcNAc(b1-3)GalNAc
In short: as §1

[14] = target: Fuc(a1-2)Gal(b1-4)[Fuc(a1-3)]GlcNAc(b1-3)[Neu5Ac(a2-6)Gal(b1-4)GlcNAc(b1-6)]Gal(b1-4)Glc
In short: as §1

[15] = target: Fuc(a1-2)Gal3S(b1-4)GlcNAc
In short: as §1

[16] = target: Fuc(a1-2)Gal6S(b1-3)GlcNAc
In short: as §1

[17] = target: Fuc(a1-2)Gal6S(b1-3)GlcNAc6S
In short: as §1

[18] = target: Fuc(a1-2)Gal6S(b1-4)Glc
In short: as §1

[19] = target: Fuc(a1-2)Gal6S(b1-4)Glc6S
In short: as §1

[20] = target: Fuc(a1-2)[Gal(a1-3)]Gal
In short: as §1

[21] = target: Fuc(a1-2)[Gal(a1-3)]Gal(b1-3)GalNAc
In short: as §1

[22] = target: Fuc(a1-2)[Gal(a1-3)]Gal(b1-3)GalNAc(b1-3)Gal(a1-4)Gal(b1-4)Glc
In short: as §1

[23] = target: Fuc(a1-2)[Gal(a1-3)]Gal(b1-3)GlcNAc
In short: as §1

[24] = target: Fuc(a1-2)[Gal(a1-3)]Gal(b1-3)GlcNAc(b1-2)Man(a1-3)[Fuc(a1-2)[Gal(a1-3)]Gal(b1-3)GlcNAc(b1-2)Man(a1-6)]Man(b1-4)GlcNAc(b1-4)GlcNAc
In short: as §1

[25] = target: Fuc(a1-2)[Gal(a1-3)]Gal(b1-3)GlcNAc(b1-2)Man(a1-3)[Fuc(a1-2)[Gal(a1-3)]Gal(b1-3)GlcNAc(b1-2)Man(a1-6)]Man(b1-4)GlcNAc(b1-4)[Fuc(a1-6)]GlcNAc
In short: as §1

[26] = target: Fuc(a1-2)[Gal(a1-3)]Gal(b1-3)GlcNAc(b1-3)GalNAc
In short: as §1

[27] = target: Fuc(a1-2)[Gal(a1-3)]Gal(b1-3)GlcNAc(b1-6)GalNAc
In short: as §1

[28] = target: Fuc(a1-2)[Gal(a1-3)]Gal(b1-4)Glc
In short: as §1

[29] = target: Fuc(a1-2)[Gal(a1-3)]Gal(b1-4)GlcNAc
In short: as §1

[30] = target: Fuc(a1-2)[Gal(a1-3)]Gal(b1-4)GlcNAc(b1-2)Man
In short: as §1

B1: BC2LB (Burholderia cenocepacia), B4EH85_BURCJ (protein)
chain: MGSSHHHHHHSSGENLYFQGHMSQPFTHDDLYALLQLAGNDATAVQANGDQAVLDRMRQFMTAQLVEKLPQYDVFVDIATIPYSFDVGSWQNKVKTDAAGEVVACTVTWAGAPGVLPGAAAKFGVGAVVNYFSKATPH
glycan array binding signal (z-score) [1]: 0.245
glycan array binding signal (z-score) [2]: -0.238
glycan array binding signal (z-score) [3]: -0.217
glycan array binding signal (z-score) [4]: 0.721
glycan array binding signal (z-score) [5]: -0.283
glycan array binding signal (z-score) [6]: 0.724
glycan array binding signal (z-score) [7]: -0.033
glycan array binding signal (z-score) [8]: -0.23
glycan array binding signal (z-score) [9]: 0.191
glycan array binding signal (z-score) [10]: 0.315
glycan array binding signal (z-score) [11]: -0.226
glycan array binding signal (z-score) [12]: -0.243
glycan array binding signal (z-score) [13]: -0.25
glycan array binding signal (z-score) [14]: -0.194
glycan array binding signal (z-score) [15]: -0.298
glycan array binding signal (z-score) [16]: -0.271
glycan array binding signal (z-score) [17]: 1.19
glycan array binding signal (z-score) [18]: -0.282
glycan array binding signal (z-score) [19]: 0.021
glycan array binding signal (z-score) [20]: 0.133
glycan array binding signal (z-score) [21]: -0.151
glycan array binding signal (z-score) [22]: 0.076
glycan array binding signal (z-score) [23]: -0.206
glycan array binding signal (z-score) [24]: -0.025
glycan array binding signal (z-score) [25]: -0.25
glycan array binding signal (z-score) [26]: -0.118
glycan array binding signal (z-score) [27]: 0.127
glycan array binding signal (z-score) [28]: -0.198
glycan array binding signal (z-score) [29]: -0.238
glycan array binding signal (z-score) [30]: -0.194
